Laboratory results as given in the supplement of paper PMC3334620.
The full ranking holds about 33,000 sequences; the median of “E-score (-0.5 to 0.5)” is about -0.017, and the highest 2% start at about 0.3. The list shows a part of the results.

target: T1, Sut1 (UniProt P53032); experiment: PBM E-score (8-mer binding enrichment) (E-score (-0.5 to 0.5)); higher = stronger / more preferred TF binding; most listed sequences are background and not binding sites; conditions: protein concentration: 200 nM; construct: GST-full length
T1 sequence: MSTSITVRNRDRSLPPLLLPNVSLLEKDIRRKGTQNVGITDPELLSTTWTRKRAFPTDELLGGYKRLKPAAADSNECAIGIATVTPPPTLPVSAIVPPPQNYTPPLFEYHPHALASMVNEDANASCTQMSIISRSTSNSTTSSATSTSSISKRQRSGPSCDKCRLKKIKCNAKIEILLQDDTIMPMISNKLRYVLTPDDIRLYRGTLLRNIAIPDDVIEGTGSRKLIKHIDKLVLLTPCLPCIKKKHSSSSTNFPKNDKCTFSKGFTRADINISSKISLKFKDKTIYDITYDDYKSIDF
How it was run: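 GST-tagged yeast TFs (full-length or DNA-binding domain) were made by PURExpress in vitro transcription/translation and applied at about 100-200 nM to universal all-10-mer Agilent arrays. The arrays were made double-stranded by primer extension, on fresh or once-stripped slides. Bound protein was detected with fluorescent anti-GST, and scans were normalised with masliner. Each ungapped eight-base word, pooled with its reverse complement, received an E-score (modified Wilcoxon-Mann-Whitney statistic) from the Universal PBM Analysis Suite.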

| Sequence | PBM E-score |
| --- | --- |
| CCTATCCC | -0.155 |
| CCAAAATC | 0.0968 |
| AGACGCCC | -0.112 |
| GCGCCACA | -0.143 |
| AAATTTTA | 0.125 |
| AACGTGAT | 0.00721 |
| CCGATTGA | 0.0928 |
| CCATGGCG | -0.0784 |
| AAAATGCA | 0.105 |
| AACTCAGA | -0.0208 |
| CCTTTCCG | 0.107 |
| CTTCACGC | -0.0405 |
| ATCCACTA | 0.125 |
| CTCCCGAA | -0.0868 |
| CACAGTGC | -0.0432 |
| CAACATGA | -0.0165 |
| CAGCTAAA | -0.0567 |
| GGGGAGAC | -0.137 |
| AACGTATT | 0.15 |
| AGCAGTAT | 0.0384 |
| GCATATCA | 0.0997 |
| GCCTTTCC | -0.00454 |
| GGAAACCC | 0.0463 |
| AAACCAAT | 0.255 |
| GCGTTAAA | 0.156 |

| Sequence | PBM E-score |
| --- | --- |
| CCTTTTAA | 0.0855 |
| CTGCGATA | -0.188 |
| AAGAGCCA | 0.00997 |
| GACACATC | -0.102 |
| GACACTCC | 0.314 |
| CCAGGAGC | -0.273 |
| GGGATGTA | -0.00772 |
| AAGAGACC | -0.0189 |
| ATCCAATG | -0.0391 |
| CTCATGGA | 0.0158 |
| GGGGAAAC | 0.0917 |
| ACGACCGA | -0.1 |
| GTATTGAC | -0.13 |
| TAGAGGCA | -0.263 |
| GTTTCTCA | 0.0308 |
| AACTGGTG | -0.161 |
| AAGCTGGA | -0.137 |
| CACCATCA | -0.182 |
| CAATCGAA | 0.147 |
| CAAGCCCA | -0.299 |
| GATATAGC | 0.0508 |
| TAAAGGGA | 0.0848 |
| AGATACGG | 0.216 |
| GTATTTTA | 0.168 |
| GTCTAGGA | -0.2 |

| Sequence | PBM E-score |
| --- | --- |
| ACCTGTGA | -0.00623 |
| AGGTGTGG | -0.0561 |
| AGATGGCG | 0.0779 |
| ATCATTCG | 0.0989 |
| TACCAGCA | -0.147 |
| CACCATAA | 0.0736 |
| GGGAGCAC | -0.089 |
| ATCGCGAG | -0.0459 |
| AGTAGCAG | -0.112 |
| GATTGTAC | -0.0282 |
| CCAATACA | 0.0323 |
| GAAGTTAC | 0.136 |
| ATAAGTCA | 0.181 |
| TCTGAGAA | -0.00752 |
| ACTTATAA | 0.246 |
| CAAGCCCG | 0.147 |
| AAACGTGT | -0.0932 |
| ATAAAGAG | 0.0458 |
| GACGGCCA | -0.0576 |
| GCGCCGTA | -0.0811 |
| CACTGATG | -0.158 |
| TCATGAGA | -0.0174 |
| CATGACGA | -0.0559 |
| CAAAGGAG | 0.0319 |
| ACGGTACA | 0.0433 |

| Sequence | PBM E-score |
| --- | --- |
| ATCCCGTC | 0.00947 |
| CAGTCCTC | -0.169 |
| AAGGGGGT | -0.314 |
| AATGGTCG | -0.193 |
| CCCTGCCC | -0.41 |
| GCTTTGTA | 0.0438 |
| ATTGCATG | 0.142 |
| CAAGCCGC | -0.2 |
| ACTTTGAG | -0.104 |
| AACGATCC | -0.0436 |
| AGTAAATG | 0.203 |
| ACATGTGC | -0.028 |
| CGGGTCGA | -0.13 |
| CCTACCGA | -0.184 |
| AAAGGGTG | -0.102 |
| GATGCTGC | -0.107 |
| ACGGATTG | 0.0185 |
| CTAGAGAC | -0.0895 |
| AACTACCG | 0.0903 |
| CTCGGAAG | 0.174 |
| GACCTCTC | 0.0599 |
| GATAAACC | -0.114 |
| GGGGTTGA | 0.0885 |
| AACATCGT | -0.104 |
| CGTTGGCA | -0.0897 |

| Sequence | PBM E-score |
| --- | --- |
| AATTACTC | 0.289 |
| CGCAATCC | -0.0614 |
| GTTAGGCA | -0.146 |
| ACTGTCAG | -0.137 |
| ACCGTGTG | -0.101 |
| GAGGTCTA | -0.16 |
| ACTCCTTC | -0.106 |
| ACCCCTCT | -0.21 |
| AGCTAGAG | -0.103 |
| CGGCTTTC | 0.0641 |
| CTGAAAAC | 0.142 |
| CGGTGTAC | -0.0056 |
| CATAAATA | 0.168 |
| GAGGTATC | -0.132 |
| TCGAACGA | -0.0715 |
| ATACTGAC | 0.13 |
| CCAAATAG | 0.0306 |
| CCGGCTAC | 0.0198 |
| AGACTGTC | -0.14 |
| ACGTGGAG | -0.159 |
| CCCACGAG | -0.242 |
| CTTGCCTC | -0.0816 |
| CCTCTTCG | -0.0989 |
| ATGCCCTA | -0.169 |
| AACGAGCC | -0.214 |

| Sequence | PBM E-score |
| --- | --- |
| AGGACTCC | 0.129 |
| AGCTTGCC | -0.22 |
| CGCCCCAC | -0.273 |
| AGTATATA | 0.395 |
| GCGATGGA | 0.0891 |
| CCACTAGA | -0.183 |
| ACCACCTA | -0.202 |
| ATCCCTAG | -0.19 |
| ACGCGGTC | -0.014 |
| CACTGAAC | 0.014 |
| CTGACGCC | -0.143 |
| CTGCCCCC | -0.396 |
| AAAGGTAG | -0.0863 |
| ACGCAACC | -0.0591 |
| AGCTCATG | -0.206 |
| CTCTAAAG | -0.0246 |
| ACTCATAA | 0.0777 |
| GCATTGCA | -0.0106 |
| AAGGGCAC | -0.218 |
| CGGAGTCC | 0.486 |
| CGCGGCTA | -0.125 |
| AACGGTGA | -0.141 |
| AATACAAT | 0.262 |
| ATCCGTTC | 0.147 |
| CACGACGA | -0.194 |

| Sequence | PBM E-score |
| --- | --- |
| CAAATTAA | 0.189 |
| ATGAGATC | 0.0501 |
| CAAAACGA | 0.174 |
| AAGTGGAG | 0.044 |
| AATCATGC | -0.0725 |
| CTCAAGCA | -0.121 |
| TAAACAGA | 0.183 |
| ATCACCTA | -0.13 |
| CATTCTGC | 0.0201 |
| GAGGATCC | -0.0628 |
| GTCTCGTA | -0.0582 |
| ACACATGC | -0.233 |
| AATAGTTA | 0.211 |
| ACGCCTAC | -0.215 |
| GAATGACC | 0.0311 |
| CCTTCCGC | 0.0599 |
| AATCGATA | 0.114 |
| AGGCACCA | -0.214 |
| ACCGTTAT | -0.0558 |
| ACTCATCA | 0.0474 |
| CCTCCAAG | -0.279 |
| ATTAACAA | 0.199 |
| GAACACCA | -0.15 |
| AGAGCCCG | -0.0964 |
| TCGATAGA | -0.0381 |

| Sequence | PBM E-score |
| --- | --- |
| TCATCAAA | -0.0315 |
| TCGTTAAA | 0.121 |
| CACATCTC | 0.0274 |
| ACCCATCC | -0.189 |
| CATTAGTA | 0.0916 |
| AAGTGGGG | -0.117 |
| GAGCAATA | -0.0374 |
| AGCACTTC | -0.16 |
| GACCAGGA | -0.0983 |
| TGGGTGAA | 0.237 |
| GCGGCTAA | 0.0216 |
| ACAGGAAT | -0.00619 |
| AGGATAAG | -0.0672 |
| CACCTGAG | -0.214 |
| CGAATATC | 0.0285 |
| TAGCATGA | 0.00304 |
| TATTCTAA | 0.0829 |
| TTCATCAA | 0.119 |
| CGATCGAC | 0.103 |
| ATTCAATA | 0.252 |
| CTACTATC | 0.312 |
| ACGGGCAA | -0.0769 |
| CAGACCCG | -0.0644 |
| ATCAGTAC | 0.0306 |
| GTCTAAAC | 0.17 |

| Sequence | PBM E-score |
| --- | --- |
| CAATTCAG | -0.0802 |
| TTCGTCAA | 0.0374 |
| CCCCATGC | -0.228 |
| AAGAACGT | 0.0715 |
| ATCAACAT | 0.179 |
| CTAGCGAG | -0.222 |
| AGGTAAGA | -0.00278 |
| ATTTTCAC | 0.152 |
| TGCCTCCA | -0.295 |
| CAGCGTGC | -0.155 |
| CCAGTCCC | -0.199 |
| AAGCCAAC | 0.118 |
| AATTATAG | 0.257 |
| GCGTATGA | -0.11 |
| AACCAATG | 0.0521 |
| ATTACGCG | 0.122 |
| ACGTCATG | 0.0136 |
| ACCAGCGA | -0.0133 |
| CGGGTAAC | -0.0778 |
